This is one part of the list.
Tested on: PfSIP2 AP2 domain 1 (GST-tagged)
Assay: gcPBM binding intensity (ln(normalized median fluorescence intensity)); higher = stronger DNA binding
Outline: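 GST-tagged P. falciparum DNA-binding domains, expressed in E. coli (about 25 μg on average), were applied for 1 h to an Agilent 4 × 180k array of primer-extended double-stranded 36-bp intergenic genomic probes plus negative controls. The binding buffer was 1× PBS with 1% milk, 0.2 mg/ml BSA, 0.5% salmon testes DNA and 0.03% Triton X-100. Bound protein was detected with Alexa488 anti-GST antibody and scanned at 488 nm. Binding intensity is the highest Masliner-normalised natural-log median intensity across replicate spots of either probe orientation.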

Sequence	gcPBM binding intensity (ln)
TATGACCTTAGAAATTGTACAAGAAAAAATGTTACA [XGTACX_site7084]	7.08
ATATAAAATACATGGGTGCAATATATTAAACAAATA [GTGCAC_site9421]	10.8
GTTATAAATAAATACACACATACAAAAATATGACGT [CACACA_site1154]	6.94
TCACATACATGAAAATGTACTTTTATAATTCCATAA [XGTACX_site1836]	7.01
TAAATAATTTCACGAATGACAAAGATATAATAAGTT [CACACA_negctrl_site1430]	6.98
TCTGTAAATACGTGCACACACAAATCACAAATGTGA [CACACA_site330]	9.89
TAAAGGTGAACAATACGTACATAAGAACTTATGAGG [XGTACX_site4216]	6.92
ATAAATACACACAAGTGTACATACTTCTATAAATAT [XGTACX_site1845]	7.03
TTTCCATATATAGAACGTACAAAGATCTTTGTTACT [XGTACX_site8972]	7.02
ATACATATATATATGTGTACATATTATATATACATA [XGTACX_site8420]	7.17
TATATATGGTATAATTGTACTAACGCCAACTATACC [XGTACX_site5853]	7.06
TTTTTTTTTATGTGCACACAAAAGATGCTTATATTT [CACACA_site2348]	9.07
TGCATATACATATGTAGTACAATAATTTGAAAAAAA [XGTACX_site5239]	7.08
TATATATATTTATACACACAAACATAATACTACTTA [CACACA_site2022]	7.25
TAGCTTTTGCCTTTTTTTAAAAAAAAATAAATAAAT [TGCATGCA_negctrl_site242]	6.68
TTATTATTTTATAACACACACATATAGATTATAGCT [CACACA_site6787]	6.95
ATATATATATATATAAAGTGAAGTATGAGGGAAATA [XGTACX_negctrl_site497]	9.37
TTTTGTATTTATGGATGTACATAATATGTTTTAAAC [XGTACX_site3278]	7.35
TATGTATGTATTAATGCGCACACAAAAAATAACAAT [CACACA_site8551]	9.09
AAAAATTAAATATAAAGTACAAAATTAAAATCTTAA [XGTACX_site931]	6.69
TTTCGTAACTATTTGTGTACATATATATATATATAT [XGTACX_site2920]	9.52
ATTTTCTTTTCCATAGTGCAATATAATTATCCATCA [GTGCAC_site9547]	8.36
ATAAATATATGAAATATACACACTTCTTTGGTATTA [CACACA_site456]	6.64
TATATATATATATACACACACACACCCATATATATA [CACACA_site2538]	9.33

From the supplement of paper PMC11417369
